# In the supplement of paper PMC8728848:
# Some of the results follow.
# B1: a L Fucosidase (Streptosporangium roseum), D2B1P1_STRRD (protein)
# chain: MRRKLLLVPAVGLLVIGSIFATQPVASADTPPVYEPTVESLNSHPVPQWFNDDKFGIFIHWGAYSVPAWGPRGSYAEWYGNYMNAGGSATNAHHKATYGQDFNYDAFLQQWKAEKFDPADWVKLFKDAGAKYFVLTSKHHEGMALWDSKSSGRDSVDLGPGRDLAKELFDAARKDEAKLKAGFYYSLYEWYNPAYTGRPATNPYTGAEIPYTGAPGGGDYVKDYMLPQMRELIDGYDPDIIWCDGQWEKPASYWNTAGVIADYYNKALNSGKEVAVANRCKIQSGNLDSPELDFQTPEYTVKPDIDPVKWESSRGIAHSYGYNQNEPEEDHLTSDQLVDSLVDIVSKNGNLLLDIGPKADGTIPEIQRQRLLDIGAWLKANGEAIYGTTYWNRAEEKGGPDDVRYTAKDATLYATALKWPGEQLTLGADLPVDHSTRITMLGSGARLSWSRDEQGRVVVNTPQEAGKHAYVFKIETPGVRSLLRTSSSLAKEIAPGRTISGELTVTNPGKRHTPATKLSLTVPQGWTATLGAPRVRPLGPGESVKVPISVSAPEGVAPAPYTLGLYQRTGRMGTTTALPLTVNRPNLSLGKPATQKSTGYDAPASRAVDGNTGGDWSAGSTTHTAEPEKQAWWQVDLGASARLDSVDVWNRLDCCADRLKDFWVMASDQPFTTDDLDQARTAPGVTAVHVGEQAGSPSKVKLPEGTRGRYVRIQLASPSNPLSLAEVQVRGSMARPNLSLGKPATQKSTGYDAPASRAVDGNTGGDWSAGSTTHTAEPEKQAWWQVDLGASARLDSVDVWNRLDCCADRLKDFWVMASDQPFTTDDLDQARTAPGVTAVHVGEQAGSPSKVKLPEGTRGRYVRIQLASPSNPLSLAEVQVRLEHHHHHHS
# Columns and labels:
# Assay in all cases: glycan array binding signal (z-score within array); higher = stronger binding
# Conditions in all cases: glycan notation: IUPAC condensed, linker removed
# [1] = biological target: Gal(b1-4)GlcNAc(b1-3)Gal(b1-4)GlcNAc(b1-2)Man(a1-3)[Gal(b1-4)GlcNAc(b1-3)Gal(b1-4)GlcNAc(b1-2)Man(a1-6)]Man(b1-4)GlcNAc(b1-4)[Fuc(a1-6)]GlcNAc
# Procedure, shortened: (§1)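 Glycan array data came from 3228 arrays in the Consortium for Functional Glycomics database, and only arrays with an available protein sequence were kept. Glycan names were put into IUPAC-condensed notation, and columns mapping to the same glycan were averaged. The binding signal is a within-array Z-score, averaged across arrays of one protein sequence run at different concentrations or buffers and across linkers. A negative Z-score can be read as non-binding.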
# [2] = biological target: Gal(b1-4)GlcNAc(b1-3)Gal(b1-4)GlcNAc(b1-2)[Gal(b1-4)GlcNAc(b1-3)Gal(b1-4)GlcNAc(b1-6)]Man(a1-6)[Gal(b1-4)GlcNAc(b1-3)Gal(b1-4)GlcNAc(b1-2)Man(a1-3)]Man(b1-4)GlcNAc(b1-4)GlcNAc
# Procedure, shortened: as §1
# [3] = biological target: Gal(b1-4)GlcNAc(b1-3)Gal(b1-4)GlcNAc(b1-2)[Gal(b1-4)GlcNAc(b1-3)Gal(b1-4)GlcNAc(b1-6)]Man(a1-6)[Gal(b1-4)GlcNAc(b1-3)Gal(b1-4)GlcNAc(b1-2)Man(a1-3)]Man(b1-4)GlcNAc(b1-4)[Fuc(a1-6)]GlcNAc
# Procedure, shortened: as §1
# [4] = biological target: Gal(b1-4)GlcNAc(b1-3)Gal(b1-4)GlcNAc(b1-3)Gal(b1-4)GlcNAc
# Procedure, shortened: as §1
# [5] = biological target: Gal(b1-4)GlcNAc(b1-3)Gal(b1-4)GlcNAc(b1-3)Gal(b1-4)GlcNAc(b1-2)Man(a1-3)[Gal(b1-4)GlcNAc(b1-3)Gal(b1-4)GlcNAc(b1-3)Gal(b1-4)GlcNAc(b1-2)Man(a1-6)]Man(b1-4)GlcNAc(b1-4)GlcNAc
# Procedure, shortened: as §1
# [6] = biological target: Gal(b1-4)GlcNAc(b1-3)Gal(b1-4)GlcNAc(b1-3)Gal(b1-4)GlcNAc(b1-2)Man(a1-3)[Gal(b1-4)GlcNAc(b1-3)Gal(b1-4)GlcNAc(b1-3)Gal(b1-4)GlcNAc(b1-2)Man(a1-6)]Man(b1-4)GlcNAc(b1-4)[Fuc(a1-6)]GlcNAc
# Procedure, shortened: as §1
# [7] = biological target: Gal(b1-4)GlcNAc(b1-3)Gal(b1-4)GlcNAc(b1-3)Gal(b1-4)GlcNAc(b1-2)[Gal(b1-4)GlcNAc(b1-3)Gal(b1-4)GlcNAc(b1-3)Gal(b1-4)GlcNAc(b1-6)]Man(a1-6)[Gal(b1-4)GlcNAc(b1-3)Gal(b1-4)GlcNAc(b1-3)Gal(b1-4)GlcNAc(b1-2)Man(a1-3)]Man(b1-4)GlcNAc(b1-4)[Fuc(a1-6)]GlcNAc
# Procedure, shortened: as §1
# [8] = biological target: Gal(b1-4)GlcNAc(b1-3)Gal(b1-4)GlcNAc(b1-3)Gal(b1-4)GlcNAc(b1-3)Gal(b1-4)GlcNAc(b1-2)Man(a1-3)[Gal(b1-4)GlcNAc(b1-3)Gal(b1-4)GlcNAc(b1-3)Gal(b1-4)GlcNAc(b1-3)Gal(b1-4)GlcNAc(b1-2)Man(a1-6)]Man(b1-4)GlcNAc(b1-4)GlcNAc
# Procedure, shortened: as §1
# [9] = biological target: Gal(b1-4)GlcNAc(b1-3)Gal(b1-4)GlcNAc(b1-3)Gal(b1-4)GlcNAc(b1-3)Gal(b1-4)GlcNAc(b1-2)Man(a1-3)[Gal(b1-4)GlcNAc(b1-3)Gal(b1-4)GlcNAc(b1-3)Gal(b1-4)GlcNAc(b1-3)Gal(b1-4)GlcNAc(b1-2)Man(a1-6)]Man(b1-4)GlcNAc(b1-4)[Fuc(a1-6)]GlcNAc
# Procedure, shortened: as §1
# [10] = biological target: Gal(b1-4)GlcNAc(b1-3)Gal(b1-4)GlcNAc(b1-3)Gal(b1-4)GlcNAc(b1-3)Gal(b1-4)GlcNAc(b1-2)[Gal(b1-4)GlcNAc(b1-3)Gal(b1-4)GlcNAc(b1-3)Gal(b1-4)GlcNAc(b1-3)Gal(b1-4)GlcNAc(b1-6)]Man(a1-6)[Gal(b1-4)GlcNAc(b1-3)Gal(b1-4)GlcNAc(b1-3)Gal(b1-4)GlcNAc(b1-3)Gal(b1-4)GlcNAc(b1-2)Man(a1-3)]Man(b1-4)GlcNAc(b1-4)[Fuc(a1-6)]GlcNAc
# Procedure, shortened: as §1
# [11] = biological target: Gal(b1-4)GlcNAc(b1-3)Gal(b1-4)GlcNAc(b1-3)Gal(b1-4)GlcNAc(b1-3)Gal(b1-4)GlcNAc(b1-3)Gal(b1-4)GlcNAc(b1-2)Man(a1-3)[Gal(b1-4)GlcNAc(b1-3)Gal(b1-4)GlcNAc(b1-3)Gal(b1-4)GlcNAc(b1-3)Gal(b1-4)GlcNAc(b1-3)Gal(b1-4)GlcNAc(b1-2)Man(a1-6)]Man(b1-4)GlcNAc(b1-4)GlcNAc
# Procedure, shortened: as §1
# [12] = biological target: Gal(b1-4)GlcNAc(b1-3)Gal(b1-4)GlcNAc(b1-3)Gal(b1-4)GlcNAc(b1-3)Gal(b1-4)GlcNAc(b1-3)Gal(b1-4)GlcNAc(b1-2)Man(a1-3)[Gal(b1-4)GlcNAc(b1-3)Gal(b1-4)GlcNAc(b1-3)Gal(b1-4)GlcNAc(b1-3)Gal(b1-4)GlcNAc(b1-3)Gal(b1-4)GlcNAc(b1-2)Man(a1-6)]Man(b1-4)GlcNAc(b1-4)[Fuc(a1-6)]GlcNAc
# Procedure, shortened: as §1
# [13] = biological target: Gal(b1-4)GlcNAc(b1-3)Gal(b1-4)GlcNAc(b1-3)Gal(b1-4)GlcNAc(b1-3)Gal(b1-4)GlcNAc(b1-3)Gal(b1-4)GlcNAc(b1-2)[Gal(b1-4)GlcNAc(b1-3)Gal(b1-4)GlcNAc(b1-3)Gal(b1-4)GlcNAc(b1-3)Gal(b1-4)GlcNAc(b1-3)Gal(b1-4)GlcNAc(b1-6)]Man(a1-6)[Gal(b1-4)GlcNAc(b1-3)Gal(b1-4)GlcNAc(b1-3)Gal(b1-4)GlcNAc(b1-3)Gal(b1-4)GlcNAc(b1-3)Gal(b1-4)GlcNAc(b1-2)Man(a1-3)]Man(b1-4)GlcNAc(b1-4)[Fuc(a1-6)]GlcNAc
# Procedure, shortened: as §1
# [14] = biological target: Gal(b1-4)GlcNAc(b1-3)Gal(b1-4)GlcNAc(b1-3)Gal(b1-4)GlcNAc(b1-3)Gal(b1-4)GlcNAc(b1-3)Gal(b1-4)GlcNAc(b1-3)Gal(b1-4)GlcNAc(b1-2)Man(a1-3)[Gal(b1-4)GlcNAc(b1-3)Gal(b1-4)GlcNAc(b1-3)Gal(b1-4)GlcNAc(b1-3)Gal(b1-4)GlcNAc(b1-3)Gal(b1-4)GlcNAc(b1-3)Gal(b1-4)GlcNAc(b1-2)Man(a1-6)]Man(b1-4)GlcNAc(b1-4)GlcNAc
# Procedure, shortened: as §1
# [15] = biological target: Gal(b1-4)GlcNAc(b1-3)Gal(b1-4)GlcNAc(b1-3)GalNAc
# Procedure, shortened: as §1
binder,measurement,setting,value
B1,glycan array binding signal (z-score),[1],-0.119
same,glycan array binding signal (z-score),[2],0.121
same,glycan array binding signal (z-score),[3],-0.462
same,glycan array binding signal (z-score),[4],-0.424
same,glycan array binding signal (z-score),[5],-0.024
same,glycan array binding signal (z-score),[6],-0.322
same,glycan array binding signal (z-score),[7],-0.468
same,glycan array binding signal (z-score),[8],-0.471
same,glycan array binding signal (z-score),[9],-0.201
same,glycan array binding signal (z-score),[10],-0.406
same,glycan array binding signal (z-score),[11],-0.491
same,glycan array binding signal (z-score),[12],2.03
same,glycan array binding signal (z-score),[13],-0.265
same,glycan array binding signal (z-score),[14],-0.476
same,glycan array binding signal (z-score),[15],0.072
